Results on 41 compounds are retold here after ChEMBL document CHEMBL4888484, “Replenishing the malaria drug discovery pipeline: Screening and hit evaluation of the MMV Hit Generation Library 1 (HGL1) against asexual blood stage Plasmodium falciparum ,using a nano luciferase reporter read-out” (2022).

The whole screen tested about 150,000 compounds, of which about 540 (0.36%) showed an effect of 50% or more. Some of the results follow.

This assay relates to Plasmodium falciparum. As to the kind of experiment: Primary screen in NF54 nanoGlo assay, in single point, at 2uM, 72h; a lower Z score goes with more inhibition. The class given is functional, Erythrocyte. The conditions noted are these: timepoint 72 hour.
As to `COc1ccc(C(=O)N2CCN=C2N2CCCCC2)cc1`, the % Inhibition – broadly, the change of the read-out against control, counted positive when it falls – was -7% and the Z score worked out at 0.71.

In the case of `Cc1ccc([C@H]2CN(C(=O)c3ccc(-n4cnnn4)cc3)C[C@@H]2N(C)C)cc1`, the “% Inhibition” value was 1% and the Z score was -0.08.

For the compound `CC(C)C[C@@]1(CO)N[C@H](c2cccc3c2OC(C)(C)C3)[C@@H]2CN(C)C[C@@H]21`, the “% Inhibition” value is on record as 1% and the Z score is recorded as -0.17.

As for `CCOc1nc(-c2ccc(F)cc2)n(-c2cccc(NC(=O)c3cccs3)c2)n1`, the “% Inhibition” value stood at 6% and the Z score was -0.71.

Take `COc1cc(OC)cc([C@@H](CC(=O)NCCN2CCCCC2)c2cn(Cc3ccc(F)cc3)c3ccccc23)c1`: the “% Inhibition” value was determined as 0% and the Z score amounted to 0.04.

On to `O=C(NCC(=O)N1CCC(Oc2cccc3cccnc23)CC1)OCc1ccccc1`, for which the “% Inhibition” value was -11% and the Z score came out at 2.02.

As to `N#Cc1cccc(C(=O)N2CCCn3nc(-c4cccs4)cc3C2)c1`, the “% Inhibition” value was -20% and the Z score is 3.71.

With `CCn1nc(C(=O)N2CCN([C@@H](C)c3ccccc3)CC2)cc1-c1cccc(Cl)c1`, the “% Inhibition” value was -8% and the Z score is listed as 1.28.

Turning to `C[C@@H](Cc1cc2ccccc2o1)NC(=O)c1cccn(C)c1=O`, the “% Inhibition” value is recorded as -18% and the Z score is 3.13.

For the compound `O=C(NCc1ccc(S(=O)(=O)N2CCOCC2)s1)c1ccc(F)c(Cl)c1`, the “% Inhibition” value is recorded as -8% and the Z score is recorded as 0.83.

As for `Cc1ccc([C@@]2(C(=O)NC(C)(C)C(=O)O)CC2(C)C)cc1`, the “% Inhibition” value is reported as -1% and the Z score came out at 0.09.

Take `S=c1oc2ccccc2n1CN1CCN(c2ccccn2)CC1`: the “% Inhibition” value is recorded as -3% and the Z score stood at 0.47.

On to `CCOCC1(CNC(=O)c2cc(=O)cc(C)[nH]2)CC1`, for which the “% Inhibition” value was -11% and the Z score is on record as 1.18.

Consider `CC(C)C(=O)N1CC(C)(C)c2cc(S(=O)(=O)N[C@H]3CCCc4ccccc43)ccc21`, for which the “% Inhibition” value is on record as 0% and the Z score was determined as 0.01.

Consider `Cc1cc(F)ccc1-n1cc(C(=O)N(C)CCCn2ccnc2C)nn1`, for which the “% Inhibition” value is given as -12% and the Z score turned out to be 1.55.

For `CC(C)C[C@]1(C)NC(=O)N(CC(F)F)C1=O`, the “% Inhibition” value is -4% and the Z score was 0.37.

Regarding `Cc1ccc(C(=O)O)c(N2Cc3cnc(-c4ccccc4)nc3C2)n1`, the “% Inhibition” value stood at 1% and the Z score is given as -0.12.

In the case of `CC[C@H](C)CNC(=O)c1ccccc1N1CCC(NC(=O)c2ccco2)CC1`, the “% Inhibition” value is reported as 3% and the Z score is -0.27.

With `Cc1ccc(CN(CCN(C)C)C(=O)c2cn(C)c3ccccc23)s1`, the “% Inhibition” value is given as -8% and the Z score is reported as 1.02.

In the case of `CN1CCC(NC(=O)NCC2(Cc3ccccc3)CCC2)CC1`, the “% Inhibition” value is -16% and the Z score amounted to 1.66.

With `C[C@H]1[C@@H](NC(=O)[C@@H]2CC2(C)C)CCS1(=O)=O`, the “% Inhibition” value is -10% and the Z score is on record as 1.28.

As for `COC(=O)c1ccc(CNCCc2ccncc2C)n1C`, the “% Inhibition” value is listed as -1% and the Z score worked out at 0.14.

With `O=C(c1cc[nH]n1)N1CCc2sccc2C1`, the “% Inhibition” value was -17% and the Z score was determined as 2.68.

For the compound `CN(CC(=O)NC1CCCCCC1)c1nnc(N2CCCC2=O)s1`, the “% Inhibition” value was -8% and the Z score worked out at 1.11.

With `CCC(CC)N1C[C@@H](C(=O)NCc2cccnc2-n2ccnc2)CC1=O`, the “% Inhibition” value was 4% and the Z score is listed as -0.64.

As for `Cc1ccc(C)c(C2CCCN2C(=O)C2CC3CCC2O3)c1` (configuration not stated), the “% Inhibition” value was -6% and the Z score is recorded as 0.77.

Regarding `O=C(c1cnn2ccccc12)N(CCN1CCOCC1)Cc1ccco1`, the “% Inhibition” value is -5% and the Z score was 0.79.

Take `CCOC(=O)Cc1csc(NC(=O)c2sc(C)nc2C(C)C)n1`: the “% Inhibition” value is listed as -3% and the Z score was 0.33.

As to `CC[C@H](NC(=O)Cn1cc(Cl)c(C)n1)c1ncnn1C`, the “% Inhibition” value was -10% and the Z score is on record as 0.91.

On to `CCN(c1ccncc1)S(=O)(=O)[C@H]1CCCN(C(=O)C2CCCC2)C1`, for which the “% Inhibition” value is reported as -7% and the Z score is 0.86.

As for `Cc1cc(-c2nc(CC(C)C)nn2C(C)(C)C)nn1C`, the “% Inhibition” value amounted to 0% and the Z score is -0.05.

In the case of `COC(=O)C1C2CCC(C(=O)OC)(CC2)C1C(=O)Nc1ccccc1` (configuration not stated), the “% Inhibition” value is recorded as -14% and the Z score was determined as 1.86.

On to `Cc1ncc(S(C)(=O)=O)c(N(C)Cc2cc(C3CC3)[nH]n2)n1`, for which the “% Inhibition” value is on record as -8% and the Z score turned out to be 0.81.

For `O=C(NC[C@H]1COc2ccccc2O1)c1ccc(S(=O)(=O)N2CCCCCC2)cc1`, the “% Inhibition” value is reported as -1% and the Z score was determined as 0.11.

In the case of `CCN(c1ccccc1)S(=O)(=O)CC1CN(S(C)(=O)=O)C1`, the “% Inhibition” value is listed as -5% and the Z score worked out at 0.73.

As to `CC[C@H](Nc1ncnc2c1c(C)nn2C)c1ccnn1C`, the “% Inhibition” value is recorded as -13% and the Z score was 1.26.

For `C[C@H](NC(=O)c1ccccc1C1(C)CC1)c1cscn1`, the “% Inhibition” value came out at 14% and the Z score was -1.9.

As for `C[C@@]1(C(=O)N2CCC(n3cc(CN4CCCC4)nn3)CC2)CCCO1`, the “% Inhibition” value is given as -18% and the Z score came to 1.59.

Turning to `C[C@H]1CN(c2nnc(-c3ccccc3Cl)s2)CCS1(=O)=O`, the “% Inhibition” value was -12% and the Z score worked out at 1.72.

For `O=C(C1c2ccccc2Oc2ccccc21)N1CCCN(C(=O)C2c3ccccc3Oc3ccccc32)CC1`, the “% Inhibition” value is recorded as -3% and the Z score stood at 0.39.

As for `COCCNc1nc(-c2cc(F)cc(F)c2)cc(-c2c(C)nn(C)c2C)n1`, the “% Inhibition” value is recorded as -8% and the Z score came to 1.09.
